Laboratory results as given in the supplement of paper PMC11417369.
± gives the standard deviation of the averaged measurements. The list shows a part of the results.

Test system: PfAP2-I AP2 domain 3 (GST-tagged)
Assay: gcPBM binding intensity (ln(normalized median fluorescence intensity)); higher = stronger DNA binding
Outline: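 GST-tagged P. falciparum DNA-binding domains produced in E. coli were incubated for 1 h on an Agilent 4 × 180k array of primer-extended double-stranded 36-bp intergenic genomic probes with negative controls. Binding intensity is the highest Masliner-normalised natural-log median intensity across replicate spots of either probe orientation, with bound protein detected by Alexa488 anti-GST antibody at 488 nm.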

Row | Sequence | gcPBM binding intensity (ln)
1 | CATATACACGAACACACACACACACGCACAAAAAAA [CACACA_site6376] | 8.37 ± 0.23
2 | ATAATTAATGATGTATGTACGGAATTTATATATTTG [XGTACX_site5685] | 7.56 ± 0.34
3 | GTATACATATTTATAATAATAAATGTCTTATATTTT [CACACA_negctrl_site688] | 7.55 ± 0.38
4 | ATAGTAATAGAATGATTGCACTTAAATTTTCCCTCT | 8.9 ± 0.26
5 | TTAAATAATTCTTTTAGTACACACGAATAAGCAGAT [XGTACX_site623] | 8.28 ± 0.47
6 | TAATATATTAATATATGTACGTATTTTTATTAATAT [XGTACX_site5346] | 7.83 ± 0.44
7 | TATCTTATATATAAGTGTACGCAGATTCTTACGATA [XGTACX_site6058] | 7.92 ± 0.3
8 | ATGTATTTATTTTAACGTACAAGATATTATTATTAT [XGTACX_site4609] | 7.79 ± 0.29
9 | AAATTATATATGATGTGTACATAAATATATACACAT [XGTACX_site8761] | 7.74 ± 0.26
10 | TTATTATTCAAGAGGAGTACATTATGTGTATAATAT [XGTACX_site4995] | 8.21 ± 0.16
11 | TATATTTAGAGAGAGACACACAAAGGGACTTACACA [CACACA_site2545] | 7.82 ± 0.71
12 | ATATGGCATATTTGTATTATACATACATATGTATCT [TGCATGCA_negctrl_site562] | 7.84 ± 0.57
13 | AAATTATAATATAATACACACATAAAAAAAAAAAAA [CACACA_site7] | 7.97 ± 0.6
14 | TGTTATTCTACATATACACACAAATAACAATTTAAA [CACACA_site1824] | 7.9 ± 0.48
15 | AAAAAAAAAAAGAACACACACAGTGCACATTCGGTG [CACACA_site788] | 10.3 ± 0.3
16 | AATACAAAAAAAGGTACACACATAATATATTTATTA [CACACA_site2628] | 7.83 ± 0.34
17 | TTAACTTTTTTATATGCACACATAAACAAGGATATA [CACACA_site8932] | 9.57 ± 0.3
18 | CTAATTGTGTATACCTGTACATATATATATATATAT [XGTACX_site416] | 9.3 ± 0.59
19 | TTATTATTTGGTTATAGTACATAATATAATATATAT [XGTACX_site6911] | 7.85 ± 0.35
20 | TATATATATATGTATGCATGTTGTTTTTTATTTAAT [TGCATGCA_site343] | 9.375 ± 0.092
21 | CTATATTTCGTTGGACGTACAAATGTGATAATTAGG [XGTACX_site3232] | 8.06 ± 0.46
22 | TTTGTTTGGTTTTGGTGTACTTTTTTTTTTTTTTCT [XGTACX_site2050] | 8.31 ± 0.29

Row | Sequence | gcPBM binding intensity (ln)
23 | GAATTATAAGAATAAACACACAAGCTTAAAAAAAAA [CACACA_site1204] | 7.64 ± 0.75
24 | AGAATTCAACAATGTTGTACATACACACACACAAAA [XGTACX_site5035] | 8.21 ± 0.29
25 | TTTCTTTTTTCACGTGCATGCCATTTAAGTATTAAT [TGCATGCA_site651] | 8.94 ± 0.71
26 | ACTAAACTTATATGTACACACATATAACATTAATTT [CACACA_site2258] | 8.02 ± 0.45
27 | ACATATGTATAATATGCACACGTCATTTTCCCCTTA [CACACA_site5194] | 8.98 ± 0.35
28 | GTATTAATATATAATTGTACTTTTTTTTTTTTTTTT [XGTACX_site4369] | 8.48 ± 0.58
29 | AAAAAAAACGGACACACACACATTCAATATAAAACA [CACACA_site4189] | 8.11 ± 0.25
30 | TTCACATGAAGAATTAAAATAAAACTAGGAAATTAA [CACACA_negctrl_site1047] | 7.47 ± 0.59
31 | TTTTTATATTTTACATGTACATAAATATATTATATA [XGTACX_site958] | 7.86 ± 0.46
32 | AATAATGAATTGAAATGTACATATTTTTATTAATAC [XGTACX_site8899] | 7.69 ± 0.38
33 | ATCACCAAATGGGCTATACAACAATGAGAAATGGTA [CACACA_negctrl_site48] | 7.8 ± 0.67
34 | ATACGAAGAAATGTTCATTTATTTCGAACATTTAAT [CACACA_negctrl_site1481] | 7.36 ± 0.59
35 | AATATAATATAATATAGTACGTAAAAATATTATACA [XGTACX_site2170] | 7.84 ± 0.2
36 | TTTTTCATAAAACACACACACAAAAATAATGTGGAA [CACACA_site3687] | 7.79 ± 0.68
37 | TCCACTTAACTCAATTGTACAAAAATAAAAATTAAA [XGTACX_site855] | 7.83 ± 0.13
38 | TTTTATGCGCAATAAGTGCATTTAAAATATATATAT | 11 ± 0.13
39 | ATAATATATATATATATATTATCAAATATATATATA [GTGCAC_negctrl_site346] | 8.63 ± 0.33
40 | TGTGTATATCGATAAAGTACATTTGAAAAGTGACTT [XGTACX_site6957] | 7.62 ± 0.51
41 | GTAATATGTATCCATACACACATACAGTTTATTTGC [CACACA_site6540] | 7.88 ± 0.52
42 | ATAATAATAATAAAAAGTACAAATTATTATATATAT [XGTACX_site5160] | 8.25 ± 0.52
43 | TGTATGCTTACATAATGTACGGAAAAATAAAGGCAT [XGTACX_site6923] | 8.62 ± 0.83
44 | ATATATAAATAATGTTGTACGTATTTCAAAAGTATG [XGTACX_site3363] | 7.87 ± 0.3
